The whole screen tested about 310,000 compounds, of which about 14,000 (4.5%) showed an effect of 50% or more. Effects have a minus sign here. The list shows a part of the results.
The molecules below were run against human ether-à-go-go-related gene (hERG) potassium channel (human, UniProt Q12809) (assay: primary screen, population patch clamp on CHO cells stably expressing hERG).
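Further: peak tail current of the secondary pulse compared with the same well before compound.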

Chain of human ether-à-go-go-related gene (hERG) potassium channel (Q12809 whole entry, looked up): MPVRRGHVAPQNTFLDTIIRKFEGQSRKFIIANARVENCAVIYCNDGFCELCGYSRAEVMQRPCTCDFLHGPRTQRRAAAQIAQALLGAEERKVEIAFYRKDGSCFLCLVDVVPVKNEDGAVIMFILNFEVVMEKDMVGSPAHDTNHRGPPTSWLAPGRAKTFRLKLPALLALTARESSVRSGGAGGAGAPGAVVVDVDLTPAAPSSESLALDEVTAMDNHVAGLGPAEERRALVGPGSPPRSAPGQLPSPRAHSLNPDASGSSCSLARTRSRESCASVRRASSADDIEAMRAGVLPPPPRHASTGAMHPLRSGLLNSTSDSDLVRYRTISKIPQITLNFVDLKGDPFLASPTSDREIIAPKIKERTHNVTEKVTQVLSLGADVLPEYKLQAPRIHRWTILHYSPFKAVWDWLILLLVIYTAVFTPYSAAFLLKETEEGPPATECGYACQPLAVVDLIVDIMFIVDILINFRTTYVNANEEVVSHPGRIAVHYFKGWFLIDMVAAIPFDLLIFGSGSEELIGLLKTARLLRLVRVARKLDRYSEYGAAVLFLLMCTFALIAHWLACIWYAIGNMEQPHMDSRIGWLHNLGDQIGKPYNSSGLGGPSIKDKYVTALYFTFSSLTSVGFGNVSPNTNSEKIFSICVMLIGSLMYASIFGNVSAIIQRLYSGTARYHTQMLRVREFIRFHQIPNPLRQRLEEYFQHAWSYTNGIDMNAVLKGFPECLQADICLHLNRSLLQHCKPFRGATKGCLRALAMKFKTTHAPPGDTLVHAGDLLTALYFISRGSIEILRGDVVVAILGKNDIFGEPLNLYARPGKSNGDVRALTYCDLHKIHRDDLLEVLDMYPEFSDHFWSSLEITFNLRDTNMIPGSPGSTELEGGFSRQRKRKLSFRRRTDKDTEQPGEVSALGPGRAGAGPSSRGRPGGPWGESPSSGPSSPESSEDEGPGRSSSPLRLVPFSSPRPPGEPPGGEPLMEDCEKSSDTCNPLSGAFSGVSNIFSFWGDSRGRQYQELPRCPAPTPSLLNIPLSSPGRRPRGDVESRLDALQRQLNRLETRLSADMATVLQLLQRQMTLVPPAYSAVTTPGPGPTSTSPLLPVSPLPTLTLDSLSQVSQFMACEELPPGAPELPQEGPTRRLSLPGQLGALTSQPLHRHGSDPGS

SMILES	hERG current change (%, negative = inhibition) at 10uM
COc1cc(NC(=O)Cn2cnc(S(=O)(=O)N3CCC(C)CC3)c2)cc(OC)c1OC	20.6%
CCOC(=O)C1=C(CN2CCN(C(=O)c3ccco3)CC2)NC(=O)NC1c1ccc(Cl)cc1 (centres unmarked)	-35%
CCOC(=O)c1c(N)sc(C(=O)Nc2ccccc2)c1C	-9.89%
COC(=O)c1ccccc1NC(=O)NCc1ccco1	11.2%
CCOc1ccc(S(=O)(=O)N2CCC(C(=O)N3CCOCC3)CC2)cc1C	9.77%
CC(C)(C)NC(=O)/C(=C/c1cccnc1)NC(=O)c1ccco1	-2.54%
C[C@@H]1CN(C2CCN(Cc3nc(CC4CC4)no3)CC2)C[C@H](C)O1	-1.44%
Cc1ccccc1C(=O)N1CCN(c2ccc(NC(=O)c3ccc([N+](=O)[O-])o3)cc2)CC1	12.8%
O=S(=O)(Nc1ccc(N2CCCCC2)cc1)c1ccc(F)cc1F	3.73%
CCCNC(=O)C1CCN(S(=O)(=O)c2c(C)noc2/C=C\c2ccc(OC)cc2)CC1	-14.2%
COC(=O)C(C)Sc1ccc2nnc(CCNS(=O)(=O)c3ccc(C)cc3)n2n1 (centres unmarked)	-20.9%
Cc1c(OCC(=O)OC(C)(C)C)ccc2c3c(c(=O)oc12)CCC3	20%
CCN(CC)CCNC(C(=O)Nc1ccc([N+](=O)[O-])cc1Br)c1ccccc1 (centres unmarked)	-77%
CCc1ccc(NC(=O)CNS(=O)(=O)c2c(C)noc2C)cc1	-2.28%
O=C(NCCC1CCCCN1S(=O)(=O)c1ccccc1)C(=O)Nc1ccc(F)cc1F (centres unmarked)	2.67%
CCN(C(=O)c1cc2c(=O)n3cccc(C)c3nc2n1CCCOC)C1CCCCC1	-44.1%
Cc1nn(-c2ccccc2)nc1C(=O)c1c(C)[nH]n(-c2ccccc2)c1=O	15.2%
CC1(C)CC(N2CCC(=O)N(C3CC(C)(C)NC(C)(C)C3)C2)CC(C)(C)N1	-7.71%
Cc1cc(C)c(C)c(S(=O)(=O)N2C(=S)NC(=O)C2C(C)C)c1C (centres unmarked)	20.8%

SMILES	hERG current change (%, negative = inhibition) at 10uM
COc1ccc(OC)c2c1C(=O)C(Cl)=C(Cl)C2=O	13.4%
COc1ccc(-c2cn3c(C)c(C(=O)N4CCN(c5ccc(F)cc5)CC4)sc3n2)cc1	1.07%
CCCC1c2ccc(C)n2CCN1C(=O)Nc1ccc(F)cc1 (centres unmarked)	-20.9%
Cc1nc2ccccn2c1C(=O)NNS(=O)(=O)c1ccc(C(C)(C)C)cc1	7.38%
CCC(CC)=NNc1ccc([N+](=O)[O-])cc1[N+](=O)[O-]	5.32%
CCOC(=O)c1ccc(NC(=O)c2ccc(NC(=O)c3ccccc3)cc2)cc1	2.11%
C#CCOc1c(Cl)cc(C2C3=C(CCCC3=O)N(CC(=O)O)C3=C2C(=O)CCC3)cc1OC	-6.23%
CC(=O)N1CCN(S(=O)(=O)c2ccc3c(c2)OCCO3)CC1	10.5%
O=C(N/N=C/c1ccc(OC(=O)c2ccccc2Cl)cc1)c1cc(O)cc(O)c1	-5.05%
CN(c1ccccc1C(=O)N1CCOCC1)S(C)(=O)=O	16.2%
COc1cccc(C(=O)C2CCCN(C(=O)c3ccc(C#CC(C)(C)O)cc3)C2)c1 (centres unmarked)	0.875%
NC(=O)c1ccccc1NC(=O)c1ccccc1S(=O)(=O)c1ccccc1[N+](=O)[O-]	-25.4%
CC(=O)Nc1ccc(C(=O)CSc2nc3ccccc3n2CC(=O)N2CCCC2)cc1	11.1%
CCc1ccc2oc(=O)cc(CN3CCN(Cc4ccccc4)CC3)c2c1	-46.3%
CCCCCc1ccc(C2=NNC(=O)CC2)cc1	-17.2%
CC(=O)c1sc(NC(C)c2ccccc2)nc1C (centres unmarked)	27%
CC(C)C1NCCc2c1sc1ccccc21 (centres unmarked)	-20.3%
c1nc(N2CCCCC2)c2[nH]cnc2n1	9.4%
COc1cccc(NC(=O)COC(=O)CCCc2c[nH]c3ccccc23)c1	6.52%

SMILES	hERG current change (%, negative = inhibition) at 10uM
COC(=O)c1ccc(C(c2c(C)[nH][nH]c2=O)c2c(C)[nH][nH]c2=O)cc1	19%
Cc1ccc(-c2nc(C(Cl)Cl)c3ccccc3n2)cc1	4.43%
Cc1ccc(NC(=O)CC2C(=O)NCCN2C(=O)c2ccc(F)cc2)cc1 (centres unmarked)	-26.3%
Clc1ccccc1-c1nnc(-c2ccccc2Cl)o1	-2.56%
CC1=NNC(=O)/C1=C\c1cn(-c2ccccc2)nc1-c1cccs1	15.3%
Cc1ccc(S(=O)(=O)NC(C)C(=O)Nc2ccc3c(c2)OCO3)cc1 (centres unmarked)	28%
Cc1c(C(=O)N(C)C2CC(C)(C)NC(C)(C)C2)oc2c(F)cccc12	-20.9%
CCOc1cc(N2CCOCC2)c(OCC)cc1NC(=O)c1nc2nc(C)cc(C)n2n1	18.4%
CSCCC(NS(=O)(=O)/C=C/c1ccccc1)C(=O)NCCc1ccc(S(N)(=O)=O)cc1 (centres unmarked)	7.59%
CS(=O)(=O)N(CC(=O)N1CCc2ccccc2C1)c1cccc(F)c1	-29.4%
Cc1oc(-c2ccc(Cl)cc2)cc1C(=O)O	19.5%
CCN(C)c1ccc(/C=N\n2nnnc2N)cc1	12%
CCOCCCNC(=O)C(c1ccc(Cl)cc1)N(Cc1cccs1)C(=O)CNC(C)=O (centres unmarked)	6.74%
CC1(C)CC(=O)c2sc(NS(C)(=O)=O)nc2C1	-12.3%
Cc1ccc(NC(=O)COc2ccccc2C(=O)NCCc2ccccc2)cc1	5.6%
Cc1nc(NC(=O)/C=C/c2ccco2)sc1C	11%
COCCn1c(SCC(=O)Nc2cccc(S(N)(=O)=O)c2)nc2cc(Cl)ccc2c1=O	-38.8%
COc1ccccc1NC(=S)N1CCN(C/C=C/c2ccccc2)CC1	-0.974%

— article PMC4336329 (PLoS ONE, 2015)
